This is an account of results in the supplement of paper PMC4967469.

IC50 is the fitted dose that halves viability relative to control wells, and lower means more sensitive; where the fit passes the top or lowest dose, that dose stands as a limit. AUC, from the same fit, is the share of area under the viability curve across the 256-fold dose range; values near 1 show little effect. For some assays here: A top dose marked as inferred is not printed in the source and was worked back from the curve model. For some assays here: Drugs with an entry number were screened twice under separate entries, and the two screens often disagree.

Holding throughout (assay): Viability of human cancer cell lines after 72 h of drug (GDSC screen)
Compound in one experiment: O=c1[nH]cc(F)c(=O)[nH]1 [5-Fluorouracil]
Particulars: top dose 32 µM; top dose inferred. On the procedure: (§1)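 Human cancer cell lines in 384-well plates, medium with 10% serum, drug for 72 h over a 256-fold dose range (nine 2-fold or five 4-fold steps up to the top dose). Adherent lines were fixed and stained with the nucleic acid dye Syto60, suspension lines read with resazurin; signal relative to control wells, capped at 0 and 100%. One two-parameter sigmoid per drug and line, fitted in a mixed model over all curves with the slope shared within a line.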

Compound in another experiment: OC[C@H](Cc1ccccc1)Nc1nc(Oc2ccc3c(c2)CCC3)nc2c1ncn2Cc1ccc(-c2ccccc2)cc1 [QS11]
Particulars: top dose 10.24 µM. Here is the method:
as §1

Compound in the next experiment: CC(C)(C)c1cc(NC(=O)Nc2ccc(-c3cn4c(n3)sc3cc(OCCN5CCOCC5)ccc34)cc2)no1 [AC220]
As to conditions: top dose 1.024 µM; top dose inferred. On the procedure:
as §1

Compound in another experiment: C#Cc1cccc(Nc2ncnc3cc(OC)c(OCCCCCCC(=O)NO)cc23)c1 [CUDC-101]
As to conditions: top dose 5.12 µM; top dose inferred. Here is the method: as §1

Compound in a further experiment: Fc1cc(-c2ccnc(Nc3ccc(-n4cnc(N5CCOCC5)n4)cc3)n2)cc(N2CCOCC2)c1 [JNK-9L]
As to conditions: top dose 5.12 µM; top dose inferred. On the procedure:
as §1

Compound in another experiment: COc1cc(F)c(F)c(Nc2ccc(I)cc2F)c1NS(=O)(=O)C1(C[C@H](O)CO)CC1 [RDEA119]
As to conditions: top dose 5 µM, top dose inferred. On the procedure:
as §1

Compound in the next experiment: NCC(=O)Nc1ccc(-n2nc(C(F)(F)F)cc2-c2ccc3c(ccc4ccccc43)c2)cc1 [OSU-03012]
As to conditions: top dose 16 µM; top dose inferred. Here is the method: as §1

Take “SUP-M2 (anaplastic large cell lymphoma, suspension)”: the AUC was 0.111 with 5-Fluorouracil; 0.929 with QS11; 0.989 with AC220; 0.294 with CUDC-101; 0.57 in the experiment with JNK-9L; 0.991 in the experiment with RDEA119 (screen: GDSC drug entry 1014). Moreover, the AUC with RDEA119 (screen: GDSC drug entry 1526) and with OSU-03012 was 0.738 in each case. The IC50 (in general, the midpoint of a concentration-inhibition curve) was 0.186 µM in the experiment with 5-Fluorouracil; 10 µM with QS11; over 1.02 µM with AC220; 0.0994 µM with CUDC-101; 0.475 µM with JNK-9L; over 5 µM in the experiment with RDEA119 (screen: GDSC drug entry 1014). The IC50 in the experiment with RDEA119 (screen: GDSC drug entry 1526) was 1.22 µM; with OSU-03012, 3.89 µM.
As to “SUP-T1 (T-cell lymphoblastic leukaemia, suspension)”, the AUC was 0.695 with 5-Fluorouracil; 0.87 in the experiment with QS11; 0.985 with AC220; 0.288 with CUDC-101; 0.577 in the experiment with JNK-9L; 0.99 with RDEA119 (screen: GDSC drug entry 1014). In addition, the results for the AUC with RDEA119 (screen: GDSC drug entry 1526) and with OSU-03012 were 0.981 and 0.623, respectively. The 50% inhibitory concentration (IC50) in the experiment with 5-Fluorouracil was 6.66 µM; with QS11 it was 8.11 µM; with AC220, over 1.02 µM; with CUDC-101 it was 0.0861 µM; in the experiment with JNK-9L, 0.509 µM; in the experiment with RDEA119 (screen: GDSC drug entry 1014) it was over 5 µM. Also, the figures for the IC50 with RDEA119 (screen: GDSC drug entry 1526) and in the experiment with OSU-03012 were over 5 µM and 2.11 µM, respectively.
In the case of SW13 (adrenal gland, adherent), the AUC was 0.988 with 5-Fluorouracil; 0.878 with QS11; 0.988 with AC220; 0.933 with CUDC-101; 0.651 in the experiment with JNK-9L; 0.808 in the experiment with RDEA119 (screen: GDSC drug entry 1014). The AUC stood at 0.788 with RDEA119 (screen: GDSC drug entry 1526) and 0.765 in the experiment with OSU-03012. The half-inhibitory concentration (IC50) was over 32 µM in the experiment with 5-Fluorouracil; over 10.2 µM with QS11; over 1.02 µM in the experiment with AC220; over 5.12 µM in the experiment with CUDC-101; 0.847 µM in the experiment with JNK-9L; 2.63 µM in the experiment with RDEA119 (screen: GDSC drug entry 1014). Further, the half-maximal inhibitory concentration (IC50) turned out to be 2.23 µM with RDEA119 (screen: GDSC drug entry 1526) and 5.94 µM with OSU-03012.
On to SW156 (kidney, adherent), for which the AUC with 5-Fluorouracil came out at 0.98; in the experiment with QS11, 0.962; with AC220, 0.983; in the experiment with CUDC-101, 0.927; with JNK-9L, 0.651; with RDEA119 (screen: GDSC drug entry 1526), 0.934. For the same cell line, the AUC in the experiment with OSU-03012 is 0.816. The half-maximal inhibitory concentration (IC50) in the experiment with 5-Fluorouracil is over 32 µM; with QS11 it was over 10.2 µM; in the experiment with AC220, over 1.02 µM; in the experiment with CUDC-101 it was over 5.12 µM; in the experiment with JNK-9L, 0.883 µM; with RDEA119 (screen: GDSC drug entry 1526), over 5 µM. Moreover, the half-maximal inhibitory concentration (IC50) with OSU-03012 was 10.1 µM.
As to SW626 (ovary, adherent), the AUC in the experiment with 5-Fluorouracil amounted to 0.8; with QS11, 0.831; in the experiment with AC220, 0.96; in the experiment with CUDC-101 it was 0.857; with JNK-9L it was 0.661; in the experiment with RDEA119 (screen: GDSC drug entry 1014), 0.509. Moreover, the AUC with RDEA119 (screen: GDSC drug entry 1526) worked out at 0.722; in the experiment with OSU-03012, 0.613. In addition, the 50% inhibitory concentration (IC50) with 5-Fluorouracil was 18.9 µM; with QS11 it was 8.24 µM; with AC220, over 1.02 µM; with CUDC-101 it was over 5.12 µM; with JNK-9L, 0.983 µM; with RDEA119 (screen: GDSC drug entry 1014) it was 0.333 µM. Moreover, the figures for the 50% inhibitory concentration (IC50) with RDEA119 (screen: GDSC drug entry 1526) and with OSU-03012 were 1.51 µM and 2.17 µM, respectively.
As for SW684 (fibrosarcoma, adherent), the AUC came out at 0.982 with 5-Fluorouracil; 0.725 in the experiment with QS11; 0.977 with AC220; 0.963 with CUDC-101; 0.764 in the experiment with JNK-9L; 0.835 with RDEA119 (screen: GDSC drug entry 1014). For the same cell line, the AUC in the experiment with RDEA119 (screen: GDSC drug entry 1526) stood at 0.859; with OSU-03012, 0.982. Besides, the IC50 in the experiment with 5-Fluorouracil was over 32 µM; in the experiment with QS11 it was 3.8 µM; with AC220, over 1.02 µM; in the experiment with CUDC-101, over 5.12 µM; with JNK-9L, 2.73 µM; with RDEA119 (screen: GDSC drug entry 1014), over 5 µM. In addition, the results for the IC50 with RDEA119 (screen: GDSC drug entry 1526) and with OSU-03012 were over 5 µM and over 16 µM, respectively.
SW756 (cervix, adherent): the AUC was 0.933 with 5-Fluorouracil; 0.903 with QS11; 0.984 with AC220; 0.775 in the experiment with CUDC-101; 0.727 with JNK-9L; 0.707 with RDEA119 (screen: GDSC drug entry 1014). Also, the values for the AUC with RDEA119 (screen: GDSC drug entry 1526) and with OSU-03012 were 0.763 and 0.713, respectively. In addition, the 50% inhibitory concentration (IC50) was over 32 µM with 5-Fluorouracil; over 10.2 µM with QS11; over 1.02 µM with AC220; 2.43 µM with CUDC-101; 1.63 µM with JNK-9L; 1.35 µM with RDEA119 (screen: GDSC drug entry 1014). Also, the IC50 in the experiment with RDEA119 (screen: GDSC drug entry 1526) stood at 2.14 µM; with OSU-03012, 4.54 µM.
With SW780 (bladder, adherent), the AUC with 5-Fluorouracil is 0.976; with QS11 it was 0.986; with AC220, 0.986; with CUDC-101 it was 0.931; with JNK-9L, 0.599; in the experiment with RDEA119 (screen: GDSC drug entry 1014), 0.646. Also, the AUC in the experiment with RDEA119 (screen: GDSC drug entry 1526) turned out to be 0.748; in the experiment with OSU-03012, 0.986. The IC50 with 5-Fluorouracil was over 32 µM; with QS11 it was over 10.2 µM; with AC220, over 1.02 µM; in the experiment with CUDC-101, over 5.12 µM; with JNK-9L, 0.613 µM; in the experiment with RDEA119 (screen: GDSC drug entry 1014) it was 0.824 µM. For the same cell line, the IC50 with RDEA119 (screen: GDSC drug entry 1526) is 1.73 µM; with OSU-03012 it was over 16 µM.
For SW837 (large intestine, adherent), the AUC with 5-Fluorouracil worked out at 0.866; in the experiment with QS11, 0.895; with AC220 it was 0.98; with CUDC-101 it was 0.417; with JNK-9L, 0.805; in the experiment with RDEA119 (screen: GDSC drug entry 1526), 0.71. The AUC with OSU-03012 worked out at 0.702. Besides, the IC50 was over 32 µM with 5-Fluorouracil; over 10.2 µM with QS11; over 1.02 µM with AC220; 0.177 µM in the experiment with CUDC-101; 3.62 µM in the experiment with JNK-9L; 1.5 µM with RDEA119 (screen: GDSC drug entry 1526). Moreover, the IC50 in the experiment with OSU-03012 was 4.49 µM.
